# Measurements taken from the RNAGym collection of RNA variant scans (doi:10.7554/elife.90254).
# The source gives no read counts; variants with many changes may rest on few reads.
# B1: LINE1-mini (parent)
# chain: GGCAGAGCUCAACACAGCGUGGCAAAGUGGCUGUGGCUAGACUGCC
# Variants of: B1
# Experiment: self-cleavage, relative activity (ratio to wild type); higher = more cleavage; in vitro, sequencing; the parent is a self-cleaving ribozyme
row,Variant,self-cleavage
1,U38A C45G C46U,0.08
2,U38A C45G C46G,0.03
3,C31U G35C A41C,0.03
4,G33A G40A C46G,0.05
5,G29U U38C U43A,0.11
6,G36A A41U U43C,0.24
7,U32C G35U A41G C42A,0.03
8,C31A G36A C37A,0.1
9,G30C A39U G44C,0.02
10,G36C A39G C46U,0.05
11,U34C G44C C45A,0.05
12,A39C G44A C46U,0.09
13,C31G U34A G40U,0.03
14,G30A C31U G44C C45G,0.13
15,G30U C31U G36U,0.03
16,G36A A41U C42A,0.08
17,G30A G33A C37U C42A,0.08
18,U32A G33C G44U,0.05
19,G35A G36A A41C G44U C46U,0.06
20,G30A C31G U34C G35C,0.03
21,U32A G33C C46A,0.05
22,A39C A41C C46G,0.05
23,G33U U34A C42U,0.08
24,G30C U34C A39U,0.29
25,U38C C42U U43C,0.22

row,Variant,self-cleavage
1,G30U U34A G35C C37U,0.07
2,U32C G40A C46A,0.07
3,U32G U34A A39G C46A,0
4,G30U C31A G36C C37U,0.01
5,G30U G40U A41U,0.12
6,C31A G35A U43C,0.01
7,U32A G35A C45U,0.05
8,U32A C42A U43C,0.06
9,G35C G36A C37U U43C,0.2
10,G30A A39G U43G,0.05
11,G33C C37A U38G,0.01
12,G30A C31A U32C,0.12
13,G30U G33C G35C,0.08
14,U34G A39G C46A,0.01
15,C31U G33A U34C,0.18
16,G30A C31A U34A,0.05
17,C31U U38C C45A,0.07
18,G29U U34G G35U,0.05
19,A39U A41U C42A,0.01
20,U32C C37A G44U,0.02
21,U32C U34G U38G G44C,0.01
22,C31G U38G A39G,0.02
23,G35U G36A U43A,0.03
24,U34A C37A C45A,0.01
25,C31A U38C G44C,0.02

row,Variant,self-cleavage
1,C31U G40C C45A C46G,0.02
2,C31G U34A A41C,0.02
3,A41G U43A G44U,0.07
4,G30A G35C C45U C46A,0.05
5,G29U U38G G44U,0.03
6,G35A G36C C46A,0.05
7,C31A U32C U38A,0.01
8,G36A G40A C42A,0.13
9,G30U U32C G35A,0.1
10,G30U U32C G35C,0.07
11,G35U A39C C42U,0.14
12,G30U C42G C46U,0.19
13,U34C G36U C46A,0.03
14,C31G G36C U43A,0
15,G30U G33A C46A,0.13
16,U34A A41U C42A,0.07
17,G30U U34C C45A,0.03
18,U32C C37A C46U,0.06
19,G30U C37G G40A,0.07
20,G30U C42G U43A,0.01
21,A39C G40C G44C,0.13
22,G30A U34G G44A,0.07
23,G33C U34C C46G,0.15
24,C42G G44A C45G,0.07
25,C31G C37A U43C,0.02

row,Variant,self-cleavage
1,G33A U38A G40A,0.04
2,U38G G40U C42U,0.02
3,U32G C37A G44A,0.05
4,C31G U43C C45A,0.04
5,C31U U38A C42A,0.1
6,C31G G33A G40C,0.02
7,G33C A39G U43G,0.01
8,G30U C31A C37G C46U,0
9,U32G C42G U43G,0.12
10,U34A C42G G44A,0.01
11,G35C A41G C42U,0
12,C31G U38G C42U,0.02
13,U34C G40U C46G,0.24
14,C37A U38G A41C G44U,0.02
15,U32G G33A U34A C46G,0.03
16,C37A G40C C45U,0.17
17,G35U C37U C45A,0.04
18,G30U U34A C42G,0
19,C31U U32G U38C C42G G44U,0
20,C37A A41G G44U C46G,0.02
21,G29U G40U G44C,0.1
22,G30A U38G C46G,0.02
23,G36U A39U C42U C45G,0
24,G35C A41U C45A,0.02
25,C31G A39C G40A,0.11

row,Variant,self-cleavage
1,U34G C42A C45A,0.01
2,A41G G44C C45G,0.01
3,U38G C42U G44A,0.03
4,G30U U43A C45A,0.01
5,U38A C42U G44A C46A,0.03
6,C31A G36U C42G,0.03
7,U34G A39G U43C,0.02
8,G30C C37A A39U U43A C45G,0.02
9,C31G G40A C46A,0
10,G36C G40A C46A,0.03
11,G30U G33A G35C,0.07
12,C31A C37U C45A,0.04
13,G35C G36C U43A,0.01
14,C31U G33U G40A,0.01
15,U32A U34G C42G,0.02
16,A39G U43C C45U C46U,0.02
17,G33C U34A C45A,0.02
18,G33C G40U G44U C45A,0.02
19,G30A C37U A41U,0.04
20,G30A C31G C46A,0.01
21,U34C C45G C46U,0.06
22,G30A G40A C46U,0.06
23,G30A G33A U38A C42A,0.02
24,C31G G36A A39C,0.03
25,U32A G33C C45U,0.03
